Results reported in the supplement of paper PMC8728848.
Some of the results follow.

Assays:
Experiment in all cases: glycan array binding signal (z-score within array); higher = stronger binding
Conditions in all cases: glycan notation: IUPAC condensed, linker removed
[1] = target: Fuc(a1-2)[GalNAc(b1-3)]Gal
Procedure, shortened: (§1)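 Arrays were curated from the Consortium for Functional Glycomics database, 3228 in total, and kept only where the protein sequence was available. Binding is expressed as a within-array Z-score. This score was averaged across arrays of the same protein sequence at different concentrations or buffers and across linkers, and negative values can be read as non-binding.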

Fuc(a1-3)GlcNAc = target: Fuc(a1-3)GlcNAc
Procedure, shortened: as §1

[2] = target: Fuc(a1-3)[Gal(b1-4)]Glc6S
Procedure, shortened: as §1

[3] = target: Fuc(a1-3)[Gal(b1-4)]GlcNAc
Procedure, shortened: as §1

[4] = target: Fuc(a1-3)[Gal(b1-4)]GlcNAc(b1-2)Man
Procedure, shortened: as §1

[5] = target: Fuc(a1-3)[Gal(b1-4)]GlcNAc(b1-2)Man(a1-3)[Fuc(a1-3)[Gal(b1-4)]GlcNAc(b1-2)Man(a1-6)]Man(b1-4)GlcNAc(b1-4)GlcNAc
Procedure, shortened: as §1

[6] = target: Fuc(a1-3)[Gal(b1-4)]GlcNAc(b1-2)Man(a1-3)[Fuc(a1-3)[Gal(b1-4)]GlcNAc(b1-2)Man(a1-6)]Man(b1-4)GlcNAc(b1-4)[Fuc(a1-6)]GlcNAc
Procedure, shortened: as §1

[7] = target: Fuc(a1-3)[Gal(b1-4)]GlcNAc(b1-3)Gal(b1-3)[Fuc(a1-4)]GlcNAc
Procedure, shortened: as §1

[8] = target: Fuc(a1-3)[Gal(b1-4)]GlcNAc(b1-3)Gal(b1-4)[Fuc(a1-3)]GlcNAc
Procedure, shortened: as §1

[9] = target: Fuc(a1-3)[Gal(b1-4)]GlcNAc(b1-3)Gal(b1-4)[Fuc(a1-3)]GlcNAc(b1-3)Gal(b1-4)[Fuc(a1-3)]GlcNAc
Procedure, shortened: as §1

[10] = target: Fuc(a1-3)[Gal(b1-4)]GlcNAc(b1-3)GalNAc
Procedure, shortened: as §1

[11] = target: Fuc(a1-3)[Gal(b1-4)]GlcNAc(b1-6)GalNAc
Procedure, shortened: as §1

[12] = target: Fuc(a1-3)[Gal(b1-4)]GlcNAc(b1-6)[Gal(b1-3)GlcNAc(b1-3)]Gal(b1-4)Glc
Procedure, shortened: as §1

[13] = target: Fuc(a1-3)[Gal(b1-4)]GlcNAc6S
Procedure, shortened: as §1

[14] = target: Fuc(a1-3)[Gal3S(b1-4)]Glc
Procedure, shortened: as §1

[15] = target: Fuc(a1-3)[Gal3S(b1-4)]GlcNAc
Procedure, shortened: as §1

[16] = target: Fuc(a1-3)[Gal3S(b1-4)]GlcNAc6S
Procedure, shortened: as §1

[17] = target: Fuc(a1-3)[GalNAc(b1-4)]GlcNAc
Procedure, shortened: as §1

[18] = target: Fuc(a1-3)[GalNAc(b1-4)]GlcNAc6S
Procedure, shortened: as §1

Fuc(a1-4)GlcNAc = target: Fuc(a1-4)GlcNAc
Procedure, shortened: as §1

Fuc(b1-3)GlcNAc = target: Fuc(b1-3)GlcNAc
Procedure, shortened: as §1

Gal(a1-2)Gal = target: Gal(a1-2)Gal
Procedure, shortened: as §1

Gal(a1-3)Gal = target: Gal(a1-3)Gal
Procedure, shortened: as §1

Gal(a1-3)Gal(b1-3)GlcNAc = target: Gal(a1-3)Gal(b1-3)GlcNAc
Procedure, shortened: as §1

[19] = target: Gal(a1-3)Gal(b1-3)GlcNAc(b1-2)Man
Procedure, shortened: as §1

[20] = target: Gal(a1-3)Gal(b1-3)GlcNAc(b1-2)Man(a1-3)[Gal(a1-3)Gal(b1-3)GlcNAc(b1-2)Man(a1-6)]Man(b1-4)GlcNAc(b1-4)GlcNAc
Procedure, shortened: as §1

[21] = target: Gal(a1-3)Gal(b1-3)GlcNAc(b1-3)GalNAc
Procedure, shortened: as §1

[22] = target: Gal(a1-3)Gal(b1-3)GlcNAc(b1-6)GalNAc
Procedure, shortened: as §1

[23] = target: Gal(a1-3)Gal(b1-3)[Fuc(a1-4)]GlcNAc(b1-2)Man(a1-3)[Gal(a1-3)Gal(b1-3)[Fuc(a1-4)]GlcNAc(b1-2)Man(a1-6)]Man(b1-4)GlcNAc(b1-4)GlcNAc
Procedure, shortened: as §1

Gal(a1-3)Gal(b1-4)Glc = target: Gal(a1-3)Gal(b1-4)Glc
Procedure, shortened: as §1

Gal(a1-3)Gal(b1-4)GlcNAc = target: Gal(a1-3)Gal(b1-4)GlcNAc
Procedure, shortened: as §1

[24] = target: Gal(a1-3)Gal(b1-4)GlcNAc(b1-2)Man
Procedure, shortened: as §1

[25] = target: Gal(a1-3)Gal(b1-4)GlcNAc(b1-2)Man(a1-3)[Gal(a1-3)Gal(b1-4)GlcNAc(b1-2)Man(a1-6)]Man(b1-4)GlcNAc(b1-4)GlcNAc
Procedure, shortened: as §1

[26] = target: Gal(a1-3)Gal(b1-4)GlcNAc(b1-3)GalNAc
Procedure, shortened: as §1

[27] = target: Gal(a1-3)Gal(b1-4)GlcNAc(b1-6)GalNAc
Procedure, shortened: as §1

[28] = target: Gal(a1-3)Gal(b1-4)[Fuc(a1-3)]GlcNAc
Procedure, shortened: as §1

[29] = target: Gal(a1-3)Gal(b1-4)[Fuc(a1-3)]GlcNAc(b1-2)Man(a1-3)[Gal(a1-3)Gal(b1-4)[Fuc(a1-3)]GlcNAc(b1-2)Man(a1-6)]Man(b1-4)GlcNAc(b1-4)GlcNAc
Procedure, shortened: as §1

Gal(a1-3)GalNAc = target: Gal(a1-3)GalNAc
Procedure, shortened: as §1

[30] = target: Gal(a1-3)[Gal(a1-4)]Gal(b1-4)GlcNAc
Procedure, shortened: as §1

[31] = target: Gal(a1-4)Gal(b1-3)GlcNAc(b1-2)Man(a1-3)[Gal(a1-4)Gal(b1-3)GlcNAc(b1-2)Man(a1-6)]Man(b1-4)GlcNAc(b1-4)GlcNAc
Procedure, shortened: as §1

Gal(a1-4)Gal(b1-4)Glc = target: Gal(a1-4)Gal(b1-4)Glc
Procedure, shortened: as §1

Gal(a1-4)Gal(b1-4)GlcNAc = target: Gal(a1-4)Gal(b1-4)GlcNAc
Procedure, shortened: as §1

[32] = target: Gal(a1-4)Gal(b1-4)GlcNAc(b1-2)Man(a1-3)[Gal(a1-4)Gal(b1-4)GlcNAc(b1-2)Man(a1-6)]Man(b1-4)GlcNAc(b1-4)GlcNAc
Procedure, shortened: as §1

[33] = target: Gal(a1-4)Gal(b1-4)GlcNAc(b1-3)Gal(b1-4)Glc
Procedure, shortened: as §1

Gal(a1-4)GlcNAc = target: Gal(a1-4)GlcNAc
Procedure, shortened: as §1

B1: HBHA-Rv (Mycobacterium tuberculosum), P0A5P6 (protein)
chain: MAENSNIDDIKAPLLAALGAADLALATVNELITNLRERAEETRTDTRSRVEESRARLTKLQEDLPEQLTELREKFTAEELRKAAEGYLEAATSRYNELVERGEAALERLRSQQSFEEVSARAEGYVDQAVELTQEALGTVASQTRAVGERAAKLVGIELPKKAAPAKKAAPAKKAAPAKKAAAKKAPAKKAAAKKVTQK
glycan array binding signal (z-score) [1]: -0.263 | glycan array binding signal (z-score) (Fuc(a1-3)GlcNAc): -0.031 | glycan array binding signal (z-score) [2]: -0.398 | glycan array binding signal (z-score) [3]: 0.17 | glycan array binding signal (z-score) [4]: -0.386 | glycan array binding signal (z-score) [5]: -0.415 | glycan array binding signal (z-score) [6]: -0.376 | glycan array binding signal (z-score) [7]: -0.289 | glycan array binding signal (z-score) [8]: 0.799 | glycan array binding signal (z-score) [9]: -0.439 | glycan array binding signal (z-score) [10]: -0.275 | glycan array binding signal (z-score) [11]: 0.48 | glycan array binding signal (z-score) [12]: -0.459 | glycan array binding signal (z-score) [13]: -0.092 | glycan array binding signal (z-score) [14]: -0.017 | glycan array binding signal (z-score) [15]: 0.805 | glycan array binding signal (z-score) [16]: 0.764 | glycan array binding signal (z-score) [17]: 0.011 | glycan array binding signal (z-score) [18]: -0.333 | glycan array binding signal (z-score) (Fuc(a1-4)GlcNAc): 20 | glycan array binding signal (z-score) (Fuc(b1-3)GlcNAc): 0.094 | glycan array binding signal (z-score) (Gal(a1-2)Gal): 0.589 | glycan array binding signal (z-score) (Gal(a1-3)Gal): 0.529 | glycan array binding signal (z-score) (Gal(a1-3)Gal(b1-3)GlcNAc): 0.9 | glycan array binding signal (z-score) [19]: -0.316 | glycan array binding signal (z-score) [20]: -0.461 | glycan array binding signal (z-score) [21]: -0.376 | glycan array binding signal (z-score) [22]: -0.236 | glycan array binding signal (z-score) [23]: -0.387 | glycan array binding signal (z-score) (Gal(a1-3)Gal(b1-4)Glc): 0.177 | glycan array binding signal (z-score) (Gal(a1-3)Gal(b1-4)GlcNAc): 0.425 | glycan array binding signal (z-score) [24]: -0.324 | glycan array binding signal (z-score) [25]: -0.371 | glycan array binding signal (z-score) [26]: -0.31 | glycan array binding signal (z-score) [27]: 0.154 | glycan array binding signal (z-score) [28]: 0.246 | glycan array binding signal (z-score) [29]: -0.435 | glycan array binding signal (z-score) (Gal(a1-3)GalNAc): -0.259 | glycan array binding signal (z-score) [30]: 0.684 | glycan array binding signal (z-score) [31]: -0.281 | glycan array binding signal (z-score) (Gal(a1-4)Gal(b1-4)Glc): -0.228 | glycan array binding signal (z-score) (Gal(a1-4)Gal(b1-4)GlcNAc): -0.136 | glycan array binding signal (z-score) [32]: -0.438 | glycan array binding signal (z-score) [33]: -0.423 | glycan array binding signal (z-score) (Gal(a1-4)GlcNAc): 0.363
